This test concerns MK-801 pre-treated rats. Put plainly: Locomotor activity in MK-801 pre-treated rats (antipsychotic activity model). Conditions: rats pre-treated with MK-801 0.7 mg/kg i.p. 90 minutes before test compound; test compound 100 μmol/kg; recorded between 30 and 60 minutes after administration.

As for `CCCN1CCC(OC)(c2cccc(F)c2F)C1` (single isomer, unassigned) [Example 4, 3-(2,3-Difluorophenyl)-3-Methoxy-1-Propylpyrrolidine], the “Locomotor activity, MK + example” value is listed as 10938 counts/30 min.

For the origin of these results see patent publication US20110257242A1, “3-PHENYL-3-METHOXYPYRROLIDINE DERIVATIVES AS MODULATORS OF CORTICAL CATECHOLAMINERGIC NEUROTRANSMISSION” (NSAB, FILIAL AF NEUROSEARCH SWEDEN AB, SVERIGE, priority 2008, published 2011).
